Results from the supplement of paper PMC10338343.
± gives the standard deviation. In all, about 6,600 sequences were measured (“pre-steady-state target cleavage rate”: median about 0.07, highest 2% from about 0.72 on). The list shows a part of the results, in another mix than the full data.

What follows are sequences tested on MIWI (PIWIL1) piRISC loaded with Kctd7 piRNA (30 nt) (assay: pre-steady-state target cleavage rate (min^-1); MIWI and MILI are mouse PIWI proteins and EfPiwi is from a freshwater sponge; tags in brackets are library labels; higher = faster piRNA-guided slicing of the target). Settings: guide: Kctd7 piRNA 5'p-UGUUAAUCUCUCAGAGAAGGUGACAGUGAU; auxiliary factor: 500 nM mouse GTSF1.
Summary of the method: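 In Cleave-'n-Seq, a transcribed, DNA-blocked target RNA library (0.1 nM) was combined with 1 nM active affinity-purified piRISC bearing one synthetic guide, with or without 500 nM GTSF1 partner protein. Reactions ran in HEPES–potassium acetate buffer at 33 °C for 0–8 or 0–960 min. Uncleaved targets were sequenced and normalised to depth and to weakly complementary targets, three trials were pooled, and k3 was capped at 0.0001 min^-1. The pre-steady-state cleavage rate was obtained by fitting a burst-and-steady-state model.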

| Sequence | pre-steady-state target cleavage rate |
| --- | --- |
| UAGUGACAGUCCUUCUCUGCGAGAUUAACA | 0.0159 ± 0.0032 |
| UAGUGACUCACCUUCUCAGAGAGAAUAACA | 0.0107 ± 0.0045 |
| UAGACUGUCUACCUUCUCUGAGAGAUUAACA | 0.157 ± 0.019 |
| UAGUCUGUCACCUUCUUUGAGAGAUUAACA | 0.467 ± 0.026 |
| UAGUGACAGUGCUUCUCUUAGAGAUUAACA | 0.00506 ± 0.0023 |
| UUCACUGACACCUUCUCUGAGUGAUUAACA | 0.0384 ± 0.0075 |
| UUCACUGUCUCCAUCUCUGAGAGAUUAACA | 0.597 ± 0.036 |
| UUCACUGUCACCUUCUCUGAGACAAUAACA | 0.0291 ± 0.008 |
| UUCACUGUCACCUUCUGUGUGAGAUUAACA | 0.075 ± 0.0075 |
| UAGUCAGUCACCUUCUCUGAGAGAUAUUGA | 0.0156 ± 0.0059 |
| UAGUGACUCACCAUCACUGAGAGAUUAACA | 0.0572 ± 0.012 |
| UAGUCUGUGACCUUCUCUGAGAGAUUAUCA | 0.165 ± 0.019 |
| AUCUGAGUCACCUUCUCUGAGAGAUUUUGA | 0.093 ± 0.019 |
| UUGACUGUCACCAUCUCUGAGAGAUUAACA | 0.756 ± 0.044 |
| UAGACUGUCACCUUCUUCUGAGAGAUUAACA | 0.0209 ± 0.0083 |
| AUCACUGUCACCUUCAUCUGAGAGAUUAACA | 0.275 ± 0.053 |
| UACACUGUCACCUUCUCUGAGAGAUUAAAA | 0.137 ± 0.022 |
| AUCACAGUCACCUUCUCUGAGAGAUUAACA | 0.707 ± 0.028 |
| UAGUGAGUCACCUUCUGUGAGAGAUUAUCA | 0.032 ± 0.0068 |
| AUCACUGUCACCUUCUCUGAGAUAUUAACA | 0.296 ± 0.026 |

| Sequence | pre-steady-state target cleavage rate |
| --- | --- |
| UAGUGACAGACCUUGUCUGAGAGAUUUACA | 0.0115 ± 0.0065 |
| UAGUGAGUCAGCUUCUCUGAGAGAUUAUCA | 0.232 ± 0.028 |
| AUCACUGUCAGCUACUCUGAGAGAUUAACA | 0.657 ± 0.038 |
| UAGUGACGCACCUUCUCUGAGAGAUUAACA | 0.6 ± 0.046 |
| UUCACUGUCAGCUUCUCUGAGAGAUUUACA | 0.274 ± 0.033 |
| UAGACUGUCACCUACUCUGAGUGAUUAACA | 0.0181 ± 0.0032 |
| UAGUGACAGUCCGUUCUCUGAGAGAUUAACA | 0.414 ± 0.036 |
| UAGUGACUCACCUACUCUGUGAGAUUAACA | 0.0484 ± 0.0058 |
| UAGUCUGUCACCUUCUCAGUGAGAUUAACA | 0.0242 ± 0.0042 |
| UUCACUGUCACCUUCUCUGAGAGAUAAUCA | 0.149 ± 0.025 |
| UAGUGACACACCUUCUCUGUGAGAUUAUCA | 0.0476 ± 0.0093 |
| UAGUGACAGUGCUUCUCUGACAGAUUAUCA | < 0.0001 |
| UUCACUGUCACCUUCUCUCAGACAUUAACA | 0.0579 ± 0.005 |
| AUCACUGUCACCUUCACUGAGAGAUAAACA | 0.299 ± 0.045 |
| UACACUGUCACCAUCUCUGAGAGUUUAACA | 0.317 ± 0.056 |
| UAGUGACACACCUUCUCUGAGACAUAAACA | 0.00704 ± 0.0039 |
| UAGUCUCUCACCUUCUCUGAGAGAUAAACA | 0.054 ± 0.009 |
| UAGUCUGUCACCUACUCAGAGAGAUUAACA | 0.14 ± 0.014 |
| AUCACUGUCACCUUCUCUGAGACAUAUUGA | 0.00392 ± 0.0034 |
| AUCACUGUCACCUUCUGUGAGAGAUUAUCA | 0.0835 ± 0.019 |
